In all, about 81,000 sequences were measured (“one-hybrid fitness for binding parS DNA”: median about -0.17, highest 2% from about 0.51 on). The list shows a part of the results.

The labels stand for the following.
B1: Caulobacter ParB omega fusion; a variant is named by its letters at X, in order, B8GW30 (parent)
chain: MESVVVGEPGMSEGRRGLGRGLSALLGEVDAAPAQAPGEQLGGSREAPIEILQRNPDQPRRTFREEDLEDLSNSIREKGVLQPILVRPSPDTAGEYQIVAGERAWRAAQRAGLKTVPIMVRELDDLAVLEIGIIENVQRADLNVLEEALSYKVLMEKFERTQENIAQTIGKSXSHVANXMRLLXLPDEVQSYLVSGELTAXHARAIAAAADPVALAKQIIEGGLSVRETEALARKAPNLSAGKSKGGRPPRVKDTDTQALESDLSSVLGLDVSIDHRGSTGTLTITYATLEQLDDLCNRLTRGI

In the assay the parent is B1. Description: one-hybrid fitness for binding parS DNA (scaled: cognate 1, non-cognate 0); higher = stronger binding. The conditions noted are these: with parS DNA site. A digest of the protocol:
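Values were rescaled so that cognate is 1 and non-cognate is 0. Each is a fitness, the log change in a variant's read ratio to wild type from Illumina reads of plasmids before and after selection, with three replicate libraries pooled and variants under 10 reads dropped. Selection of the Caulobacter ParB libraries, four specificity codons randomised, used E. coli USO with a HIS3 reporter, site 19 bp from the promoter, on M9-minus-histidine with 0.1 mM IPTG and 5 mM 3-AT for 48 hours at 37°C.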
Regarding SMVS, the “one-hybrid fitness for binding parS DNA” value is not above 0.2.
The figure for CSNW is not above 0.2.
With HTTS the figure was not above 0.2.
With SRKK the figure was not above 0.2; with DHMT, not above 0.2.
Consider LCWG, for which the “one-hybrid fitness for binding parS DNA” value is not above 0.2.
With GEVR the figure was not above 0.2; with RTHR, not above 0.2.
With ERWT the figure was not above 0.2; with WMEK, not above 0.2.
As to DPRT, the “one-hybrid fitness for binding parS DNA” value was not above 0.2.
For the variant QMAH, the “one-hybrid fitness for binding parS DNA” value was not above 0.2.
The figure for WAQG is not above 0.2; for WMPF it is not above 0.2; for PVNK it is not above 0.2.
Turning to RVSK, the “one-hybrid fitness for binding parS DNA” value is not above 0.2.
Regarding YPWN, the “one-hybrid fitness for binding parS DNA” value is not above 0.2.
With RHWN the figure was 0.305; with ADQV, not above 0.2; with RFTD, not above 0.2.
With LCAF the figure was not above 0.2; with TPRM, not above 0.2; with FYGG, not above 0.2.
The figure for GAHS is not above 0.2; for CAHT it is not above 0.2.
Take YWMT: the “one-hybrid fitness for binding parS DNA” value is not above 0.2.
With RMGI the figure was not above 0.2.
With NLWV the figure was not above 0.2; with ITIY, not above 0.2; with KYRF, not above 0.2.
The figure for MLRV is not above 0.2.
As to VPGE, the “one-hybrid fitness for binding parS DNA” value was not above 0.2.
With PRVR the figure was not above 0.2.
With TTLH, the “one-hybrid fitness for binding parS DNA” value is not above 0.2.
As for YPEN, the “one-hybrid fitness for binding parS DNA” value is not above 0.2.
The figure for PNHR is not above 0.2.
As to LWPC, the “one-hybrid fitness for binding parS DNA” value was not above 0.2.
With NVPK the figure was not above 0.2; with KCFS, not above 0.2.
With DAFC the figure was not above 0.2; with HLAI, not above 0.2.
With DKNG the figure was not above 0.2; with QYNC, not above 0.2; with TSAY, not above 0.2.
For CLPI, the “one-hybrid fitness for binding parS DNA” value is not above 0.2.
In the case of EPSI, the “one-hybrid fitness for binding parS DNA” value was not above 0.2.
The figure for VTHW is not above 0.2.
With VYRA the figure was not above 0.2.
With AACD the figure was not above 0.2; with KPTN, not above 0.2; with PCQF, not above 0.2.
As for SYES, the “one-hybrid fitness for binding parS DNA” value was not above 0.2.
With RTQL the figure was not above 0.2; with VLDF, not above 0.2.
With RQMG, the “one-hybrid fitness for binding parS DNA” value amounted to 0.973.
With QKVR, the “one-hybrid fitness for binding parS DNA” value is not above 0.2.
The figure for YGNV is not above 0.2; for RWFC it is 0.6; for NRWE it is 0.27.
With SSWG the figure was not above 0.2; with CLAF, not above 0.2; with RKVS, 0.967.
As to QCSK, the “one-hybrid fitness for binding parS DNA” value is not above 0.2.
The figure for LESG is not above 0.2.
With ENYG the figure was not above 0.2; with HQQG, not above 0.2.
With MAKR the figure was not above 0.2; with VSQN, not above 0.2; with QNDF, not above 0.2.
In the case of NRDR, the “one-hybrid fitness for binding parS DNA” value is not above 0.2.
With ADSM the figure was not above 0.2; with KKDC, not above 0.2; with KCES, not above 0.2.
Take YMYG: the “one-hybrid fitness for binding parS DNA” value was not above 0.2.
The figure for WRAY is not above 0.2; for NWRM it is not above 0.2.
As to YKAC, the “one-hybrid fitness for binding parS DNA” value was not above 0.2.
The figure for ATPP is not above 0.2; for MTSD it is not above 0.2.
Regarding TIHV, the “one-hybrid fitness for binding parS DNA” value is not above 0.2.
With TLVM the figure was not above 0.2.
The figure for HCQR is not above 0.2; for TSYF it is not above 0.2.
With DLEL the figure was not above 0.2.

Source of the values: a collection of fitness landscapes (doi:10.1016/j.celrep.2020.107928).
